PubChem BioAssay AID488969 (Vanderbilt High Throughput Screening Facility, 2010)
Whole data set: some 110,000 compounds, median “z-score” near -0.1, cut for the highest 2% near 2. This is one part of the list. Active and inactive are the calls of the source.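 How the source made its calls: active means z-score in the third read window above 3 or below -3; inactive means the rest.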

Target: Metabotropic glutamate receptor 8 (Rattus norvegicus) (UniProt P70579)
Assay: mGluR8 Gi/Go-coupled signaling modulation – cell-based, rat, thallium flux, HTS, primary screen (AID 488969)
Details: HEK293 rat mGluR8, GIRK (G protein-gated inwardly rectifying potassium channel) thallium flux, FluoZin2; at 10 µM; stronger effect = higher value; submaximal glutamate (EC20) added with thallium

UniProt P70579, sequence (P70579 whole entry, looked up): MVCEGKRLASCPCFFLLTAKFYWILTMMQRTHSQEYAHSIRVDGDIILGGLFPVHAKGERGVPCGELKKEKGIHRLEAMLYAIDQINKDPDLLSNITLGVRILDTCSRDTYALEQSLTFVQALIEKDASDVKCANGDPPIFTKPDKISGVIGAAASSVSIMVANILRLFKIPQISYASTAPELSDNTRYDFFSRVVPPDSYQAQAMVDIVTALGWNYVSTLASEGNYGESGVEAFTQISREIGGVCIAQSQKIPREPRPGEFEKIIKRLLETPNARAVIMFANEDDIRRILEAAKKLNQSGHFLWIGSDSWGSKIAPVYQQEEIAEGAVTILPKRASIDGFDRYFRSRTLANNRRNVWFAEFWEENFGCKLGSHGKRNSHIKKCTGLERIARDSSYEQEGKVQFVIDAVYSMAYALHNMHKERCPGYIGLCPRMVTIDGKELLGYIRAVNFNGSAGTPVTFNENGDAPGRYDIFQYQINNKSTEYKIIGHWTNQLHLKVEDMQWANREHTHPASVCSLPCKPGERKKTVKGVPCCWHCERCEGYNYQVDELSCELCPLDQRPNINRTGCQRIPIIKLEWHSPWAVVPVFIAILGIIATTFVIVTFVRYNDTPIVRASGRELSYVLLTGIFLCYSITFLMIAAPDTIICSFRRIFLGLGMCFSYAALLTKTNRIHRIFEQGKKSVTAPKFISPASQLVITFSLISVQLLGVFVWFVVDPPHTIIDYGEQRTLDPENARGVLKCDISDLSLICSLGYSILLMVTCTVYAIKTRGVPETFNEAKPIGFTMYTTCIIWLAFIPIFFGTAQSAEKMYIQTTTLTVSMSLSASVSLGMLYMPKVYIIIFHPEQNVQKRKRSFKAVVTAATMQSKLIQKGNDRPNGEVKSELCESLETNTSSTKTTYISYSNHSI

Row | SMILES | z-score
1 | CCOc1ccc(S(=O)(=O)NCCC2=CCCCC2)c2ccccc12 | -0.345
2 | O=C1NC(=S)S/C1=C\c1ccc(SCc2ccccc2)o1 | active: 6.47
3 | COc1cccc(OCc2cc(/C=N/NC(=O)c3nc(Cl)c(Cl)c(N)c3Cl)ccc2OC)c1 | -0.384
4 | Cc1ccc(C)c(OCC(=O)N/N=C/c2c(C)nn(-c3ccccc3)c2Cl)c1C | -0.185
5 | Cc1nc2cc(CO)ccc2n1C | -0.273
6 | Oc1c(C=NCc2ccc(F)cc2)[nH]c2ccc(Br)c(Cl)c12 | -1.56
7 | Cc1ccccc1-n1c(SCC(=O)c2c(N)n(C)c(=O)n(C)c2=O)nnc1-c1cccnc1 | -0.348
8 | N#C/C(=C/c1ccco1)c1nc2ccccc2s1 | -0.219
9 | O=Cc1ccc(OCc2ccccn2)cc1 | 0.197
10 | CCCCCC(=O)NC(=S)Nc1ccc(NC(=O)c2ccco2)cc1 | 0.064
11 | COc1cc2[nH]c(=O)n(CCCCCC(=O)NCCCN3CCC(C)CC3)c(=O)c2cc1OC | -0.231
12 | CCCCOc1ccc(C(=O)N2CC(C)OC(C)C2)cc1 (stereo not drawn) | -0.154
13 | COc1ccc(-n2c(C)nn(C)c2=O)cc1 | 0.0161
14 | Cc1oc2ccc(O)cc2c1C(=O)OC(C)C | -0.379
15 | O=C(c1ccc(F)cc1)N1C2CCC1CC(O)(c1ccc(F)cc1)C2 (stereo not drawn) | -0.612
16 | Cc1ccc(C2=Nc3ccccc3N=C(c3ccco3)C2)c(O)c1 | -0.197
17 | CCCn1nnc(NC(=O)c2ccc(-c3cccc(Cl)c3)o2)n1 | 0.347
18 | CCO/N=C(/C)c1c(O)c(C)c(-c2ccccc2)n(-c2ccccc2)c1=O | -0.116
19 | CCOC(=O)c1ccc(NC(=O)CSc2ncccn2)cc1 | -0.0145
20 | CCn1c2ccccc2c2cc(NC(=O)CSc3nnc(-c4ccc(OC)cc4)n3N)ccc21 | -0.318
21 | O=C(Nc1ccc(F)cc1)C(Sc1nnc2ccccn12)c1ccccc1 (stereo not drawn) | -0.216
22 | CC(=O)N1C(C(=O)O)CSC1c1ccc(C)cc1 (stereo not drawn) | 0.63
23 | CCCCCn1c(SCC(=O)OC)nc2c1c(=O)[nH]c(=O)n2C | 2.01

Row | SMILES | z-score
24 | CCOC(=O)c1ccc(CNC(=O)CCC(=O)O)cc1 | -0.433
25 | COc1ccc(N2CCN(CC(=O)Nc3sccc3C#N)CC2)cc1 | -0.283
26 | COc1cccc(C(=O)NC2=NCCS2)c1 | -0.478
27 | O=C(c1cnn2c(C(F)(F)F)cc(-c3cccs3)nc12)N1CCN(C(c2ccccc2)c2ccccc2)CC1 | -1.36
28 | COC(=O)c1ccc(SC)cn1 | -0.136
29 | CCCN(CCC)C(=O)CP(=O)(c1ccccc1)c1ccccc1 | -0.0382
30 | c1ccc(CC2CCN(C(c3cccs3)c3nnnn3C3CCCC3)CC2)cc1 (stereo not drawn) | -0.0415
31 | COc1cccc(-c2nc(CS(=O)CC(=O)O)c(C)o2)c1 (stereo not drawn) | 0.0172
32 | CCOC(=O)CSc1nc(-c2ccccc2)nc2ccccc12 | -0.121
33 | CSc1ccc(S(=O)(=O)Nc2ccc(NC(C)=O)cc2)cc1 | 0.423
34 | COc1cc(NC(=O)c2ccco2)c(OC)cc1NC(=O)CCC(=O)Nc1cc(C)cc(C)c1 | -0.284
35 | C=CCn1c(N)c(C(=O)OC(C)(C)C)c2nc3ccccc3nc21 | active: -3.18
36 | COc1ccc(-n2nc(C(=O)NCC(=O)NCC3CCCO3)c3ccccc3c2=O)cc1 (stereo not drawn) | 0.0632
37 | CCOC(=O)c1cc(C(=O)OCC)cc(-n2cc(O)c(C(=O)OCC)n2)c1 | -0.0997
38 | CN(CC(=O)Nc1ccc(S(=O)(=O)N2CCCC2)cc1)Cc1ccc(Cl)cc1 | -0.459
39 | Nc1c(S(=O)(=O)c2cccs2)c2nc3ccccc3nc2n1CCc1ccccc1 | 0.0551
40 | O=C1c2ccccc2C(=O)N1CSc1nnc(Nc2ccccc2F)s1 | -0.0871
41 | Cc1cc(C)nc(NC(=O)c2cc([N+](=O)[O-])cc([N+](=O)[O-])c2)n1 | -0.0784
42 | Fc1ccc(NC(=S)NCc2ccccn2)cc1 | -0.286
43 | CCCOc1ccc(/C(O)=C2/C(=O)C(=O)N(CCN(C)C)C2c2ccncc2)cc1 (stereo not drawn) | 0.268
44 | Cc1cc(C)c(C)c(S(=O)(=O)Nc2ccc(OCC(=O)O)cc2)c1C | -0.015
45 | CCCOC(=O)c1ccc(Nc2nc(C)cc(=O)[nH]2)cc1 | 0.778
46 | CCCCc1c(C)c2cc(C)ccc2[nH]c1=O | 0.186

Row | SMILES | z-score
47 | CCOC(=O)C(C(C)=O)C(c1ccc(OCCC(C)C)cc1)C(C(C)=O)C(=O)OCC (stereo not drawn) | 0.169
48 | COc1ccc(C(NC(=O)CNC(C)=O)C(=O)Nc2ccc(C(C)C)cc2)cc1 (stereo not drawn) | 0.131
49 | O=C1CN(Cc2ccccc2)C(=NCc2ccco2)S1 | -0.501
50 | CS(=O)(=O)N(CC(N)=O)Cc1ccc(Cl)cc1 | 0.738
51 | Cc1nc2ccccn2c1C(=O)CSc1ccccc1Cl | 0.099
52 | Cc1ccc(S(=O)(=O)NC2=NCN(C3CCN(Cc4ccccc4)CC3)CN2)cc1 | -0.332
53 | Cc1ccc(S(=O)(=O)N(C)c2ccc(OCC(=O)NCc3ccco3)cc2)cc1 | -0.403
54 | NS(=O)(=O)c1ccc(CNC(=O)CC23CC4CC(CC(C4)C2)C3)cc1 | -0.125
55 | O=C(NCCc1ccccc1)c1ccc(Cl)nc1 | -0.316
56 | CC(=O)c1cccc(NC(=O)COc2cc3oc(=O)c(CC(C)O)c(C)c3cc2Cl)c1 (stereo not drawn) | -1.11
57 | Cc1ccc(CN(Cc2ccco2)C(=S)NCC(=O)O)cc1 | 1.34
58 | CCCCNc1cc(=O)oc2ccccc12 | -0.226
59 | COc1cc(OC)cc(C(=O)NC2=NCCS2)c1 | -0.162
60 | CC(CCc1ccccc1)NC(=O)COC(=O)CC1CC2CCC1C2 (stereo not drawn) | -0.285
61 | COc1ccc(CCNC(=O)CCC(=O)N2CCN(S(=O)(=O)c3ccccc3)CC2)cc1OC | -0.162
62 | COc1ccc(-c2oc3ncn(CCN4CCOCC4)c(=N)c3c2-c2ccc(OC)cc2)cc1 | 2.6
63 | Cc1cccc(NC(=O)Cn2cc(C(=O)c3ccco3)c3ccccc32)c1 | 0.00152
64 | COc1ccc(CCNC(=O)C2CCN(S(=O)(=O)c3cc(OC)ccc3OC)CC2)cc1 | -0.206
65 | CCn1nnnc1SCC(=O)c1ccc(C)cc1C | -0.0173
66 | CC(C)Nc1nc(NC(C)C)nc(C(N)=O)n1 | -0.413
67 | CC(=O)N1CCN(C(=S)c2ccc(Cl)cc2)CC1 | -0.082
68 | CCC(C)(C)n1nnnc1C(c1ccc2ncccc2c1)N1CCN2CCCC2C1 (stereo not drawn) | -0.475
69 | Cc1[nH]n(-c2ccc(Cl)cc2)c(=O)c1/C=N/n1c(C)nc2ccccc2c1=O | 0.316

Row | SMILES | z-score
70 | Cc1ccc(C)c(-n2c(CNc3ccc(F)cc3)nnc2SCC(N)=O)c1 | -0.64
71 | COc1ccccc1OC(=O)c1ccc(S(=O)(=O)N(C)C)cc1 | -0.379
72 | CN(CC(=O)Nc1ccc(Cl)cc1)c1ccc(S(=O)(=O)N2CCCCC2)cc1[N+](=O)[O-] | -0.23
73 | Cc1cc(C(=O)Nc2ncn[nH]2)ccc1[N+](=O)[O-] | 0.428
74 | COc1ccc(-c2cc(C#N)nc(N3CCNCC3)n2)cc1 | 2.07
75 | CCCCC(=O)N/N=C(\C)CC(=O)Nc1cc(Cl)ccc1OC | -0.0637
76 | Oc1ccc(C2=NNC(=NCc3ccc4c(c3)OCO4)SC2)c(O)c1 | 0.542
77 | Cc1cc(Nc2ccccc2C(=O)O)nc2nc3ccccc3c(=O)n12 | -0.163
78 | COc1cccc(/C=C/C(=O)c2ccc(C)c([N+](=O)[O-])c2)c1 | -0.0159
79 | CC(C)CC(=O)Nc1ccc(Oc2ccc(NC(=O)CC(C)C)cc2)cc1 | 0.129
80 | COc1cc(S(=O)(=O)n2nnc3ccccc32)c(OC)cc1Cl | 1.77
81 | Cc1nn(Cc2ccccc2)c2c1C(c1ccc(Cl)cc1)C(C#N)=C(N)O2 (stereo not drawn) | -0.00625
82 | CCOC(=O)CSc1nnc(-c2ccccc2OC)o1 | active: -3.7
83 | COc1cccc(-n2nnc3c(=O)n(Cc4c(F)cccc4Cl)cnc32)c1 | -0.221
84 | C[N+]1(CC(=O)Nc2ccc(F)cc2)CCN(C(=O)c2ccco2)CC1 | -0.00484
85 | O=C(COC(=O)c1cccs1)NCCN1C(=O)CSC1=O | 0.00636
86 | N#CC1=C(N)C2=CCCC[C@H]2[C@H](c2ccc(Br)cc2)C1(C#N)C#N | -0.535
87 | CCN(c1ccc(NC(=O)COC(=O)CCc2nc3ccccc3n2-c2ccccc2)cc1)C(C)C | -0.153
88 | O=C(COC(=O)CCCOc1ccc(Cl)cc1Cl)NCc1ccccc1 | -0.469
89 | CC(=O)NCCN=Cc1sc2ccccc2c1O | -0.126
90 | COc1cc(C(=O)N/N=C/c2ccsc2C)cc(OC)c1OC | 0.0664
91 | c1ccc(OCc2nc3ccccc3s2)cc1 | 0.0173
92 | Cc1nc(-c2ccc(NC(=O)C3CCCCC3)cc2)cs1 | -0.0739

Row | SMILES | z-score
93 | COC(=O)c1ccc(NC(=O)CNC(=O)C2CCCCC2)c(C)c1 | 0.438
94 | N#C/C(=C\c1cn(Cc2ccccc2C#N)c2ccccc12)C(=O)NCc1cccs1 | -0.0115
95 | COc1ccccc1CN1C(=O)CN(C2CCCCCC2)C(=O)C1c1ccc(F)cc1 (stereo not drawn) | -0.515
96 | CCCN(CCC)C(=S)NC(=O)c1ccc(-c2ccccc2)cc1 | -0.959
97 | CCC(C)NC(=O)CCc1nc2ccccc2n1-c1ccccc1 (stereo not drawn) | -0.283
98 | Cc1ccc(OCCOCCNC(C)C)c(Br)c1 | 0.634
99 | C=CCc1c(C)nc(-c2ccccc2)nc1N/N=C/c1ccccc1 | -0.265
100 | CCOC(=O)c1ccccc1NC(=O)/C(C)=C/C(=O)O | -0.283
101 | CC1CCCN(C(=O)CSc2cnc3ccccc3n2)C1 (stereo not drawn) | -1.09
102 | COc1ccc(-n2c(C)nc(=O)c(-c3ccccc3)c2C)cc1 | -0.292
103 | CN1CCN(C(=O)CN(Cc2ccc(Cl)cc2)S(C)(=O)=O)CC1 | 0.244
104 | Cn1c(-c2sc3cc(C(F)(F)F)cnc3c2-c2cccnc2)n[nH]c1=S | -0.0472
105 | CCc1nnc(N/N=C/c2ccccc2Cl)n1N | -0.109
106 | O=C(OCC#CCSc1nc2ccccc2o1)c1ccco1 | -0.863
107 | COc1cc(-n2ccnc2SC)c(Cl)cc1Cl | -0.645
108 | Cc1ccc(-c2nnn(CC(=O)N(CC(=O)NC(C)C)c3cnc4ccccc4c3)n2)o1 | -0.185
109 | O=C1CCC(C(=O)Nc2cccc3ccccc23)N1 (stereo not drawn) | 0.0808
110 | CC(=O)OC12CC3CC(C1)C(=NO)C(C3)C2 | -0.268
111 | CNC(=O)c1cc2c(ccc3ccccc32)oc1=N | -0.246
112 | Cc1ccccc1/C(N)=N/OC(=O)N1c2ccccc2Sc2ccccc21 | -0.481
113 | O=C(NNC(=O)c1cc([N+](=O)[O-])ccc1Cl)c1cccs1 | -0.106
